# In the supplement of paper PMC12067230:
# This is a noisy data set.
# Assay: amyloid nucleation score relative to library mode (yeast Sup35 reporter selection) (log enrichment difference); higher = more amyloid nucleation; sequences are the first 22 residues of the Bri2 peptide extended by up to 12 random residues
# Details: random library (experiment): 1;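 active = nucleation score significantly above 0 at FDR 0.05; inactive = not significantly above 0 or absent from output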
# 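Further: [psi-pin-] Saccharomyces cerevisiae expressing SupN fusions, induced by 100 µM Cu2SO4, selected 7 d at 30 °C without adenine and uracil, scored by deep sequencing of output versus input.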
row,Sequence,amyloid nucleation score
1,EASNCFAIRHFENKFAVETLICFIILPRLPNVNA,inactive
2,EASNCFAIRHFENKFAVETLICFILTVYQYLADM,inactive
3,EASNCFAIRHFENKFAVETLICFIPFWCICLSSR,-0.273
4,EASNCFAIRHFENKFAVETLICFIPTCGRYTIYV,inactive
5,EASNCFAIRHFENKFAVETLICFIRQFRGVRSYR,4.8
6,EASNCFAIRHFENKFAVETLICFIT,8.09
7,EASNCFAIRHFENKFAVETLICFIWVMWPCLLKS,inactive
8,EASNCFAIRHFENKFAVETLICFIYCIAYYRTHS,inactive
9,EASNCFAIRHFENKFAVETLICFKCGLTLKAVPA,inactive
10,EASNCFAIRHFENKFAVETLICFKDCVSGNKCKG,inactive
11,EASNCFAIRHFENKFAVETLICFKGCCSCGSPTR,6.11
12,EASNCFAIRHFENKFAVETLICFKMVPWIWVTVT,inactive
13,EASNCFAIRHFENKFAVETLICFKNGPSMGMCRT,inactive
14,EASNCFAIRHFENKFAVETLICFKPEINKRKNFA,inactive
15,EASNCFAIRHFENKFAVETLICFKPGSLRLVGGD,inactive
16,EASNCFAIRHFENKFAVETLICFKQAGALMFGCW,inactive
17,EASNCFAIRHFENKFAVETLICFKRT,inactive

row,Sequence,amyloid nucleation score
1,EASNCFAIRHFENKFAVETLICFKVSIC,6.67
2,EASNCFAIRHFENKFAVETLICFKVVRKPRDVCQ,1.86
3,EASNCFAIRHFENKFAVETLICFL,8.21
4,EASNCFAIRHFENKFAVETLICFLARGGRLASST,inactive
5,EASNCFAIRHFENKFAVETLICFLFEVRVCWRTR,inactive
6,EASNCFAIRHFENKFAVETLICFLFQSGQYRSTA,3.91
7,EASNCFAIRHFENKFAVETLICFLGSRHRSDLCR,inactive
8,EASNCFAIRHFENKFAVETLICFLHLDVCLGLS,inactive
9,EASNCFAIRHFENKFAVETLICFLK,inactive
10,EASNCFAIRHFENKFAVETLICFLKF,inactive
11,EASNCFAIRHFENKFAVETLICFLM,6.24
12,EASNCFAIRHFENKFAVETLICFLMNEISELILT,inactive
13,EASNCFAIRHFENKFAVETLICFLMNTTINTASQ,5.95
14,EASNCFAIRHFENKFAVETLICFLQ,7.32
15,EASNCFAIRHFENKFAVETLICFLSWNLGLAPVR,-0.111
16,EASNCFAIRHFENKFAVETLICFLVEYVHLCVKD,inactive

# Same assay, conditions: random library (experiment): 2
row,Sequence,amyloid nucleation score
1,EASNCFAIRHFENKFAVETLICFIILSFVYVR,inactive
2,EASNCFAIRHFENKFAVETLICFIKRLKSNCKIV,-0.859
3,EASNCFAIRHFENKFAVETLICFILCRINNYICE,-0.0296
4,EASNCFAIRHFENKFAVETLICFILSVVWVMHDE,inactive
5,EASNCFAIRHFENKFAVETLICFIMNRSNLVKLL,inactive
6,EASNCFAIRHFENKFAVETLICFIN,7.27
7,EASNCFAIRHFENKFAVETLICFINAWNIVHVDS,inactive
8,EASNCFAIRHFENKFAVETLICFINLLSGGDARC,8.05
9,EASNCFAIRHFENKFAVETLICFINNMFLFCLRR,inactive
10,EASNCFAIRHFENKFAVETLICFIQMMIQHRHRL,inactive
11,EASNCFAIRHFENKFAVETLICFIQYNEMGSSIW,6.68
12,EASNCFAIRHFENKFAVETLICFIQYVHEGSLCG,6.29
13,EASNCFAIRHFENKFAVETLICFIRCVDK,inactive
14,EASNCFAIRHFENKFAVETLICFIRLSHKLYCMV,inactive
15,EASNCFAIRHFENKFAVETLICFITSLDRVVYDM,inactive
16,EASNCFAIRHFENKFAVETLICFIVITLRFHVFV,0.545
17,EASNCFAIRHFENKFAVETLICFIVLTPNVSVVI,inactive
18,EASNCFAIRHFENKFAVETLICFIVNDQ,8.97
19,EASNCFAIRHFENKFAVETLICFIWPINLVLWYR,inactive
20,EASNCFAIRHFENKFAVETLICFIWRGMCSVRLG,inactive
21,EASNCFAIRHFENKFAVETLICFK,1.16
22,EASNCFAIRHFENKFAVETLICFKACTRRNFGIS,inactive
23,EASNCFAIRHFENKFAVETLICFKEVDCLERYIH,inactive
24,EASNCFAIRHFENKFAVETLICFKGNTAVRWLWG,3.79
25,EASNCFAIRHFENKFAVETLICFKGTYDIAAMRM,3.5
26,EASNCFAIRHFENKFAVETLICFKLWTKCLRSEG,inactive
